Measured values published in the RNAGym collection of RNA variant scans (doi:10.1073/pnas.2313332121).
Variants at the background level are over-represented here.

B1: TPR 5TU (parent)
chain: GGAUCUUCUCGAUCUAACAAAAAAGACAAAUCUGCCACAAAGCUUGAGAGCAUCUUCGGAUGCAGAGGCGGCAGCCUUCGGUGGCGCGAUAGCGCCAACGUUCUCAACUAUGACACGCAAAACGCGUGCUCCGUUGAAUGGAGUUUAUCAUG

Variants of: B1
Assay: polymerase ribozyme fitness, log enrichment relative to wild type (log ratio); higher = more active; in vitro selection for triplet polymerase activity
How it was run: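 Mutant libraries of both subunits of a heterodimeric triplet polymerase ribozyme were PCR-built, transcribed, and selected once in triplicate, with frozen incubation at −7 °C and capture of gel-excised extended constructs on streptavidin beads before RT-PCR. Illumina sequencing of input and output libraries was filtered to genotypes with ≥10 input reads and ≥1 read per output. Fitness is the logarithm of genotype enrichment over wild-type enrichment, using inverse-variance-weighted replicate averages. The logarithm is base 2.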

GGAUUUUCUCGAUCUAACAAAAAAGACAAAUCUGCCACAAAGCUUGAGAGCAUCUUCGGAUGCAGAGGCGGCAGCCUUCGGUGGCGAGAUAGCGCCAACGUUCUCAACUAUGACACGCAAAACGCGUGCUCCGUUGAAUGGAGUUUAUCAUG and GGAUCAUCUCGAUCUAACAAAAAAGGCAAAUCUGCCACAAAGCUUAAGAGCAACUUCGGAUGCAGAGGCGGCAGCCUUCGGUGGCGCGAUAGCGCCAACGUUGUCAACUAUGACACGCAAAACGCGUGCUCCGUUGAAUGGGGUUUAUCAUG cannot be ordered by “polymerase ribozyme fitness (log ratio)” value: ≤ -4.2 for the first, ≤ -4.2 for the second.

GGAUCAUCUCGAUCUUACGAAUAAGACAAUUCUGCCACAAAGCUUGAGAGCAUCUUCGGAUGCAGAGGCGGCAGCCUUCGGUGGCGGGAUAGCGCCAACGUUCUCACCUAUGACACGCAAAACGCGUGCUCCGUUGAAGGGAGUUUAUCAUG and GGAUCAUCUCGCUCUUACUAAAAAGACAAAUCUGCCACAAAGCUUGAGAGCAUCUUCGGAUGCAGAGGCGGCAGGCUUCGGUGCCGCGAUAGCGCCGUCGUACUCAACUAUGACACGCAAAACUCGUGCUCCGUUGAAUGGAGUUUAUCAUG cannot be ordered by “polymerase ribozyme fitness (log ratio)” value: ≤ -4.2 for the first, ≤ -4.2 for the second.

GGAUCAUCUCGAUCUAACAAAAAAGACAAAUCUGCCGCAAAGCUUGAGAGCAUCUUCGGAUGCAGAGGCGGCAGCCUUCAGUGGCGAGAUAGCGCCAACGUGCUCAACUAUGACACGCAAAACGCGUGCUCCGUUGAAUGGAGUUUAUCAUA and GGAUUUUCUCGAUCUAACAAAAAAGACAAAUCUGCCACAAAGCUUGAGACCAUCUUCGGAUGCAGAGGCGGCAGCCUUCGGUGGCGUGAUAGCGCCAACGUUGUCAACUAUGACACGCAAGAUGGGUGCUCCGUUGAAUGGAGUUUAUCAUG cannot be ordered by “polymerase ribozyme fitness (log ratio)” value: ≤ -4.2 for the first, ≤ -4.2 for the second.

GGAUUUUCUCGAAAUAACAAAAAAGACAAAUCUGCCACAAAGCUUGAGAGCAACAUCGGAUGCAGAGGCGGCAGCAUUCGGUGGCGCGAUAGCGCCAACGUUCUCAACUAUGACACGCAUAACCCGUGCUCCGUUGAAUGGAGUUUAUCAUG and GGAUUUUCUCGAUCUAACAAAAAAGACAAAUCUGCCACAAAGCUUGAGAGCAUCUUCAGAUGCAGAGGCGGCAGCCUUCGGUGGCGCGAUUGCGCCAACGUUCUCAACUAUGACACGCAAAACGCGUGCUCCGUUGAAUGGAGUUUAUCAUG cannot be ordered by “polymerase ribozyme fitness (log ratio)” value: ≤ -4.2 for the first, ≤ -4.2 for the second.

GGAUCAUCUCGAUCUAACAAAAAAGCCAAAUCUGACACAAAGCUUGAGAGCAUCUUCGGAUGCACAGGCGGCAGCCUUCGGUGGCGCGAUAGCGCCAACGUUCUCAACUAUGACACGCAAAACGUGUGCUCCGUUGAAUGGAGUUUAUCAUG and GGAUUUUCUCAAUCUAACAAAAAAGACAUAUCUGCCACAAAGCUUGAGAGCAUCUUCGGAUGCAGAGGCCGCAGCCUUCGGUGACGCGAUAGCGCUAACGUUCUCAACUAUGACACGCAAAACGCGUGCUCCGUUGAAUGGAGUUUAUCAUG cannot be ordered by “polymerase ribozyme fitness (log ratio)” value: ≤ -4.2 for the first, ≤ -4.2 for the second.

GGAUUUUCUCGAUCUAACAAAAAAGACAAAUCUGCCACAAAGCUUGAGAGCAUCUUCGGAUGCAGAGGCGGCAGCCUUCGGUGUCGCGAUAGCGCCAACGUUCUCAACUAUGACACGCAAAACGCGUGCUCCGUUGAAUGGAGUUUAGCAUG and GGAUCAUCUCGAUCUAACAAAAGAGACAAAUCUGCCACAAAGCUUGAGAGCUUCUUCGGAUGCAGAGGCGGCAGCCUUCGGUGGCGCGAUAGCGCCAACGUUCUCAACUAUGACACGCAAAGCGCGUGCUCCGUUGAAUGGAGUUUAUCAUG cannot be ordered by “polymerase ribozyme fitness (log ratio)” value: ≤ -4.2 for the first, ≤ -4.2 for the second.

GGAUCAUCUCGAUCUAACAAACAAGACAAAUCUGCCACAAAGCUUGAGAGCAUCUUCGGAUGCAGAGGCGGCAGUCUUCGGUGACGCGAUAGCGCCGACGUUCUCAAGUAUGCCAAGCAAAACGCGUGCUCCGUGGAAUGGAGUUUAUCAUG and GGAUCAUCUCGAUCUAACAAAAUAGACAAAUCUGCCACAAAGCUUGAGAGCAUCUUCGGAUGCAGAGGCGGCAGCCUUCGGUGUCGCGAUAGCGCCAACGUUCUCAACUAUGACAAGCAAAACGCGUGCUCCGUUGAAUGGAGUUUAUCCUG cannot be ordered by “polymerase ribozyme fitness (log ratio)” value: ≤ -4.2 for the first, ≤ -4.2 for the second.

Going from GGAUUUUCUCGAUCUAACAAAAAAGACAAAUCUGCCACAAAGCUUUAGAGCAUCUUCGGAUGCAGAGGCGGCAGCCUUCGGUGGGGCGAUAGCGCCAACGUUCUCAACUAUGACACGCAAAACGCGUGCUCCGUUGAAUGGAGUUUAUCAUG to GGAUUUUCUCGAUCUAACAAAAAAGACAAAUCUGCCACAAAGCUGGAGAGCAUCUUCGGAUCCAAAGGCGGCAGCCUUCGGUGGCGAGAUAGCGCCAACGUUCUCAACUAUGACACGCAAAACGCGUGCUCCGUUGAAUGUAGGUUAUCAUG, the “polymerase ribozyme fitness (log ratio)” value falls from -2.05 to ≤ -4.2.

GGAUUUUCUCGAUCUAACAAAAAAGACAAAUCUUCCACAAAGCUUGAGAGCAUCUUCGGAUGCAGAGGCGGCAGCCAUCGGUGGCGCGAUAGCGCCAACGUUCUCAACUAUGACACGCAAAACGCGUGCUCCGUUGAAUGGAGUUUAUCAUG and GGAUUUUCUCGAUCUAACAAAAAAGACAAAUCUGCCACAAAGCUUGAGAGCAUCUUCGGAAGCAGAGGCGGCAGCCUUCGGUGGCGCGACAGCUCCAACGUUCUCAGCUAUGACACGCAAAACGCGUGGUCCGAUGAAUGGAGUUUAUCAUG cannot be ordered by “polymerase ribozyme fitness (log ratio)” value: ≤ -4.2 for the first, ≤ -4.2 for the second.

GGAUUUUCUCGAUCUAACAAAAAAGACAAAUCCGCCACAAAGCUUGAGAGCAUCUUUGGUUGCAGAGGCGGCAGCCUUCGUUGGCGUGAUGGCGCCAACGUUCUCAACUAUGACACGCAAAACGCGUGCUCCGUUGAAUGGAGUUUAUCAUG and GGAUCAUCUCGAUCUAACAAAAAAGACAAAUCUGCCGCAAAGCUUGAGAGCAUCUUCGGAUGCAGAGGCGUCGGCCUUCGGUGGCGCGAUAGGGCCAAAGUUCUCAACUAUGACACGCAAAACGCGUGCUACGUUGAAUGGAGUUUAUCAUG cannot be ordered by “polymerase ribozyme fitness (log ratio)” value: ≤ -4.2 for the first, ≤ -4.2 for the second.

GGAUCAUCUCGAUCUAACAAAAAAGACAUAUCUGCCACAAUGCUUGAGAGCAUCUUCGGAUGCAGAGGCGGCAGCCUUCGGUAGCACGAUAGCGCCAACGUUCUCAAAUAUGACACGCAAAACGCGUGCUCCGUUGAAGGGAGUUUAUCAUG and GGAUCAUCUCGAUCUAACAAUCAAGACAAAUCUGCCACAAAGCUUGAGGGCAUCUUCGGAUGCAGAGGCGGCCGGCUUCGGGGGCGCGAUAGCGCCAACGUUCUCAACUAUGAAACGCAAAACGCGUGCUCCGUUGAAUGGAGUUUAUCAUG cannot be ordered by “polymerase ribozyme fitness (log ratio)” value: ≤ -4.2 for the first, ≤ -4.2 for the second.

GGAUCAUCUCGAUCUAACAAAAAAGGCAAAUCUGCCACAAAGCUUGAGAGCAUCUUCUGAUGCAGAGGCGGCAGCCUUCGGUGACGCGAGAGCGCCAACGUUCUCAACUAUGACACGCAAAACGCGUGCUCCGUUGAAUGGAGUUUAUCAUG and GGAUUUUCACGAUCUAACAAAAAAGACAAAUCUGCCACAAAGCUUGUGAGCAUCUUCGGAUGUAGAGGCGGCAGCCUUCGGUGGCGCGAUAGCGCCAACGUUCUCAACUAUGACACGCAAAAUGCGUGCUCCGUGGAAUGGAGUUUAUCAUG cannot be ordered by “polymerase ribozyme fitness (log ratio)” value: ≤ -4.2 for the first, ≤ -4.2 for the second.

Compared with GGAUUUUCUCGAUCUAACAAAAAAGACAAAUCUGCCACAAAGCUUGAGAGCAUCUUCGGAUGCAGAGGCGGCAGCCUUCGGUGGUGCGAUAGCGCCAACGUUCUCAACUAUGACACGCAAAACGCGUGCUCCGUUGAAUGGAGUUUAUCAUG, GGAUUUUCUCGAACUAACAAAAGAGACAAAUCUGCUACAAAGCUUAAGAGCAUCUUCGGAUGCAGAGGCGGCAGCCUUCGGUGGCGCGAUAGCGCCUACGUUUUCAACUAUGACACGCAAAACGCGUGCUCCGUUGAAUGGAGUUUAUCAUG is lower in “polymerase ribozyme fitness (log ratio)” value: -0.24 for the first, ≤ -4.2 for the second.

GGAUCAUCUCGAUCUAACAAAAAAGCGAAAUCUGCCACAAAGCUUGAGAGCAUCUUCGGAUGCAGAGGCGGCAGCGUUCGGUGGCGCGAUAGCGCCAACGUUCUCAACUAUGACACGCAAAACGCGUGCUCCGUGGAAUGGAGUUUAUCAUU and GGAUCAUCUCGAUCUAACAAAAACGACAAAUCUGCCACAAAGCUUGAAAGCAUCUUCGGAUGCAGAGGCGGCAGCCUUCGGUGGCGCGAUAGUGCCAACGUUCUCAACUAUGACACGCAAAACGCGGGCUCCGUUGAAUGGAGAUUAUCAUG cannot be ordered by “polymerase ribozyme fitness (log ratio)” value: ≤ -4.2 for the first, ≤ -4.2 for the second.

GGAUUUUCUCGAUCAAGUAAAAAAGACAAAUCUGCCACAAAACUUGAGAGCAACAUCGGCUGCAGAGCCGGCAGCCUUUGGUGGCGCGAUCGCGCCGACGUUCUCAACUAUGACACGCAAAACGCGUGCUCCGUUGAAUGGAGUUUAUCAUG and GGAUUUUCUCGAUCUAACAAAAAAGACAAAUCUGCCACAAAGCUUGAGACCAUCUUCGGAUGCAGAGGCGGCAGCCUUCGGUGGAGCGAUAGCGCCAACGUUCUCGACUAUGACACGCAAAACGCGUGCUCCGUUGAAUGGAGUUUAACAUG cannot be ordered by “polymerase ribozyme fitness (log ratio)” value: ≤ -4.2 for the first, ≤ -4.2 for the second.

GGAUUUUCUCGAUCUAACAAAAAACACAAAUCUGCCACAAAUCUUGAGAGCAUCUUCGGAAGCAGAGGCGGCAGCCUUCGGUGGCGCGAUAGCGCCAACGUUCUCAUCUAUGACACGCAAAACGCGUGCUCCUUUGAAUGGCGUUUAACAUG and GGAUCAUCUCGAUCUAACAAAAACGACAAAUCUGCCACAAAGCUUGAGAGCAUCUUGGCAUGCAGAGGCGGCAGCCUUCGGUGGCGCGAUAGAGCCCACGUUCUCAACUAUGACACGCAAAACGCGUGCUCGGUUGAAUGGAGUUUAUCAUG cannot be ordered by “polymerase ribozyme fitness (log ratio)” value: ≤ -4.2 for the first, ≤ -4.2 for the second.

GGAUCAUCUCGGUCUAACAAAAAAGACAAAUCUGCCACAAAGCUUGAGAGCAUCUUCGGAUGCAGAGGCGGCAGCCUUCGGUGGCACUAUAGCGCCAACGUUCUCAACUAUGACACGCAAAACGCGUGCUCCGUUGAAUGGAGAUUAUCAUG and GGAUCAUCUCGAUCUAACAAUAAAGACAAAUCUGCCACAAAGCUUGAGAGCAUCUUCGGAUGCAGAGGCGGCAGCCUUCGGUGGCGCGAUAGCGCCAACGUUCUCAAGUAUGACACGCAAAACGCGUGCUCUGUUGAAUGGAUUUUAUCAUG cannot be ordered by “polymerase ribozyme fitness (log ratio)” value: ≤ -4.2 for the first, ≤ -4.2 for the second.

GGAUUUUCUCGAUCUAACAAAAAAGACAAAUCUGCCACAAAGCUUGAGAGCAUCUUCGGAUGCAGAGGCGGCAGCCUUCGGUGGCGCGAGAGCGCCAACGUUCUCAACUAUGACACGCAAAACGCGUGCUCCGUUGAAUGGAGUUUAUCAUG and GGAUUUUCUCGAUCUAACAAAAAAGACAAAUCUGCCACAAAGCAUGAGAGCAUCUUCGGAUGCAGAGGCGGCAGCCUUCGGUGGCGAGAUAGCGCCAAUGUUCUCAACUAUGACACGCAAAACGCGUGCUCCGUUGAAUGGAGUUUAUCUUG cannot be ordered by “polymerase ribozyme fitness (log ratio)” value: ≤ -4.2 for the first, ≤ -4.2 for the second.

Going from GGAUUUUCUCGAUCUAACAAAAAAGACAAAUCUGCCACAAAGCUUGAGACCAUCUUCGGAUGCAGAGGCGGCAGCAUUCGGUGGCGAGAUAGCGCCAACGUUCUCAACUAUGACACGCAAAACGCGUGCUCCGUUGAAUGGAGUUUAUCAUG to GGAUUUUCUCGACCUAACAAAAAAGACAAAUCUGCCACAAAGCUUGAGAGCAUCUUCGGAUGCAGAGGCGGCAGCCUUCGGUGGCGCGAUAGCGUCAACGUUCUCAACUAUGACACGCAAAACGCGUGCUCCGUUGAAUGGAGUUGAUCAUG, the “polymerase ribozyme fitness (log ratio)” value rises from ≤ -4.2 to -1.13.
